Over roughly 13,000 compounds, “IFI” has its median near 4; the highest 2% begin near 17. Some of the results follow.
Assay: GSK_TCMDC: Inhibition Frequency Index (IFI). The number of non-kinase HTS assays where a compound showed > 50 % inhibition, expressed as a percentage of the number of such assays in which the compound was tested (-0 is zero)
Format: functional
CC(=O)Nc1ncc(C(=O)Nc2cccc(-c3cccc(-c4nc5ccccc5[nH]4)c3)c2)s1 showed an IFI of 2.78%. Compound CN(C)c1ccc(-c2csc(C(=O)NC3CCN(CCC(C)(C)C)C3)c2)cc1 (stereo not given) has an IFI of 9.09%. In the case of CCOC(=O)c1ccc2[nH]c(-c3ccc(C(=O)NC4CCN(Cc5ccccc5)CC4)s3)nc2c1, the IFI is reported as 4.26%. Compound COc1ccc(OC(C)CNC(=O)c2cc([N+](=O)[O-])ccc2-c2ccc(OC)cc2)cc1 (stereo not given) has an IFI of 1.83%. In the case of Cc1cccc2nc(-c3ccc(-c4cccc(CNCc5cnn(-c6ccccc6)n5)c4)s3)[nH]c12, the IFI is reported as 7.94%. O=C(NC1CCN(Cc2ccccc2)CC1)c1ccc2c(=O)n(Cc3ccc(Cl)cc3)c(=S)[nH]c2c1 gave an IFI of 6.62%. CC(C)CNCc1cccc(-c2ccccc2CNC2CCN(Cc3ccccc3)CC2)c1 showed an IFI of 6.57%. Work on Fc1ccc2[nH]c(-c3ccc(-c4cccc(CN5CCCCC5)c4)cc3)nc2c1 yielded an IFI of 2.86%. Compound N#Cc1ccc2c(c1)CCN(CCC1CCC(NC(=O)/C=C/c3ccc(F)c4ccccc34)CC1)CC2 (stereo not given) has an IFI of 1.5%. c1ccc(-c2cc3cccc(-c4nc5cnccc5[nH]4)c3o2)cc1 gave an IFI of 2.86%. Work on CS(=O)(=O)Nc1cccc(-c2cnc3[nH]cc(-c4ccc(CCC(=O)O)cc4)c3c2)c1 yielded an IFI of 2.75%. For CC1(C)Cc2c([nH]c3ccccc23)C(CCCCCCCCC2=NC(C)(C)Cc3c2[nH]c2ccccc32)=N1, the IFI was 9.42%. In the case of CCN(CC)CCN(Cc1ccc(-c2ccc(C(F)(F)F)cc2)cc1)C(=O)Cn1nc(-c2ccc(C(F)(F)F)cc2)ccc1=O, the IFI is reported as 8.97%. Compound O=C1Nc2cccc3c2C1(CCCCN1CCC(c2c(-c4ccc(F)cc4)[nH]c4ccccc24)CC1)CCC3 (stereo not given) has an IFI of 7.91%. Work on CC(C)(C)c1ccc(-c2cc3c(ccc4nc(N)nc(N)c43)[nH]2)cc1 yielded an IFI of 13.5%. For CCN(CCCN1CCCCC1)c1cc(C)nc(Nc2cccc(C(F)(F)F)c2)n1, the IFI was 10%. Cc1cccc2nc(-c3cccc(-c4ccc(NC(=O)C(C)(C)c5ccccn5)cc4)c3)[nH]c12 gave an IFI of 1.8%. Work on O=S(=O)(c1cccc(Cl)c1F)N(CCC(O)(C(F)(F)F)C(F)(F)F)Cc1cccc(O)c1 yielded an IFI of 4.35%. Oc1ccc(CCNCCCCCCNCCc2ccc(Br)cc2)cc1O showed an IFI of 5.15%. O=C(/C=C/c1ccc([N+](=O)[O-])cc1)N1CCC(CCN2CCC(c3c[nH]c4ccccc34)CC2)CC1 showed an IFI of 5.15%. For COc1ccc(-c2cccc(NC(=O)c3ccc(Cl)cc3)c2)cc1CN1CCCN(C)CC1, the IFI was 10.7%. For O=C1Nc2cccc3c2C1(CCCN1CCC(c2c[nH]c4cc(C(F)(F)F)ccc24)CC1)CCC3 (stereo not given), the IFI was 11.3%. CC(C)[C@@H](C(=O)NCc1cccc(C(F)(F)F)c1)N1C(=O)CCC1C(=O)Nc1ccc([N+](=O)[O-])cc1 (stereo not given in full) showed an IFI of 2.21%. Cc1cccc2nc(-c3cccc(-c4ccc(CN5CCC(C(N)=O)CC5)cc4)c3)[nH]c12 gave an IFI of 0.98%. Compound COc1ccc(-c2nc3c(NCc4ccccc4)nccc3[nH]2)c(OC)c1 has an IFI of 2.27%. In the case of CC(C)CN1CCCN(Cc2cccc(NC(=O)c3ccc(-c4ccccc4)cc3)c2)CC1, the IFI is reported as 2.05%. For CN1CCN(CCCN(Cc2csc(-c3ccc(CNCc4ccccc4)cc3)n2)C(=O)Nc2cccc(Cl)c2)CC1, the IFI was 9.87%. Work on O=C1C(=Cc2c(O)ccc3ccccc23)SC(=NCc2ccccc2)N1Cc1ccccc1 yielded an IFI of 0.72%. Compound Cc1cccc2nc(-c3ccc(-c4cccc(NC(=O)Cc5c[nH]cn5)c4)cc3)[nH]c12 has an IFI of 1.87%. For O=C(/C=C/c1ccc(Cl)c(Cl)c1)N1CCC(CN2CCC(c3c[nH]c4cnccc34)CC2)CC1, the IFI was 2.8%. O=C(Cn1c(CCc2cccc(F)c2F)cc(=O)c2ccccc21)N(CCN1CCCC1)Cc1ccc(-c2ccc(C(F)(F)F)cc2)cc1 showed an IFI of 6.57%. In the case of Cc1cc(NC(=O)NCCN2CCC(NS(=O)(=O)c3ccc(C(F)(F)F)cc3)C2)c2ccccc2n1 (stereo not given), the IFI is reported as 0%. In the case of O=[N+]([O-])c1ccc(-n2nc(-c3cccnc3)n(Cc3ccco3)c2=S)c(Cl)c1, the IFI is reported as 1.35%. For CCc1cc(NC2CCN(C)CC2)nc(Nc2ccc(C)cc2)n1, the IFI was 2.82%. Compound Cc1cc(NC(=O)c2cccs2)ccc1OC1CCN(Cc2ccc(F)cc2)C1 (stereo not given) has an IFI of 3.28%. For C=CC[C@H](C[C@H](O)[C@H](Cc1ccccc1)NC(=O)c1ccc(-c2cccnn2)cc1)C(=O)NC1CCCCC1, the IFI was 0%. Work on COc1ccc(-n2ccnc2SCC(=O)Nc2cc(C(F)(F)F)ccc2Cl)c(OC)c1 yielded an IFI of 3.05%. With Cc1cc2nc(-c3ccc(C(=O)NC4CCN(Cc5ccccc5)CC4)s3)[nH]c2cc1C the IFI was 4.17%. For COc1ccccc1-c1ccc(CNC(=O)C(CN2CCN(C)CC2)c2ccccc2)cc1 (stereo not given), the IFI was 2.88%. Compound CCc1cc(COc2ccc(CNCCC(C)C)cc2I)c(OCc2ccccc2)c(COc2ccc(CNCCC(C)C)cc2I)c1 has an IFI of 14.3%. CCOCc1cn(CC(=O)c2ccc(-c3ccccc3)cc2)c(C)nc1=N gave an IFI of 4.17%. Compound Cc1cc(OCCCN2CCC(NS(=O)(=O)c3ccc(C(F)(F)F)cc3)CC2)c2ccccc2n1 has an IFI of 3.45%. In the case of CCCc1cc(Cc2cnc(N)nc2N)cc(CCC)c1O, the IFI is reported as 2.24%. Work on O=C(Cc1cccc(Cl)c1)Nc1cccc(-c2c[nH]c3nc(Nc4cccc(O)c4)ncc23)c1 yielded an IFI of 3.7%. COc1cc(OCCCN(C)Cc2ccc(OC)c(OC)c2)ccc1NC(=O)c1cccc2c(O)c3cccc(F)c3nc12 gave an IFI of 5.26%. In the case of Cc1cccc2nc(-c3ccc(-c4cccc(CN5CCN(CCN6CCOCC6)CC5)c4)s3)[nH]c12, the IFI is reported as 4.23%. For O=C(C1CCCC1)N1CCOC(CCN2CCC(c3ccccc3)CC2)(c2ccc(Cl)c(Cl)c2)C1 (stereo not given), the IFI was 9.93%. Work on O=C(Nc1cccc(CN2CCCN(Cc3ccccc3)CC2)c1)c1ccc(Cl)c(Cl)c1 yielded an IFI of 3.97%. In the case of OCC1CCN(Cc2ccc(-c3ccc(-c4nc5cc(C(F)(F)F)ccc5[nH]4)cc3)cc2)CC1, the IFI is reported as 1.92%. CCN1CCC(N(Cc2ccc(-c3ccc(C(F)(F)F)cc3)cc2)C(=O)Cn2c(CCc3cccc(F)c3F)cc(=O)c3ccccc32)CC1 gave an IFI of 11.5%. Work on Cc1nc(-c2cccc(Nc3nccc(NCC(O)c4ccccc4C(F)(F)F)n3)c2)cs1 (stereo not given) yielded an IFI of 22.8%. With COc1cc(NC(=O)Nc2cc(C)nc3ccccc23)cc(OC)c1 the IFI was 1.4%. In the case of Cc1noc(C)c1S(=O)(=O)N(C)Cc1ccc(-c2ccc(Cl)cc2)o1, the IFI is reported as 3.23%. Fc1c(CNCC2CCN(CC3CCCCC3)CC2)cccc1C(F)(F)F gave an IFI of 3.65%. Cc1cc(N[C@@H](CC(C)C)C(=O)NC2CCCC2)nc(NCCc2ccc(F)cc2)n1 showed an IFI of 6.82%. In the case of COc1ccc2nccc(N3CCC(NCc4ccc5c(n4)NC(=O)CS5)CC3)c2n1, the IFI is reported as 0.72%. O=C(CCc1nc2c(cnn2-c2ccccc2)c(=O)[nH]1)NC1CCSc2ccccc21 (stereo not given) gave an IFI of 0%. Compound CN(C)C(CNC(=O)c1cc(-c2ccncc2)c(-c2ccc(NC(=O)Nc3ccccc3)cc2)o1)c1ccccc1 (stereo not given) has an IFI of 6.85%. Work on O=c1c(Br)c(C(F)(F)F)[nH]c2ccc(Oc3ccccc3)cc12 yielded an IFI of 7.89%. Cc1nc(-c2nc(NCCc3cnccn3)ncc2-c2ccsc2)sc1C gave an IFI of 2.22%. CCOc1ccc(C=CC(=O)Nc2ccc3nc(N4CCOCC4)cc(C)c3c2)cc1OC gave an IFI of 4.04%. Work on CCCCCC(C)C(C)c1cc(O)c2c(c1)OC(C)(C)CC2(O)c1ccccn1 (stereo not given) yielded an IFI of 0.75%. Work on Oc1cccc(/C=N/Nc2ccnc3cc(Cl)ccc23)c1 yielded an IFI of 0.74%. COc1ccc(OC)c(-c2cccc(-c3cccc(NC(=O)c4ccc([N+](=O)[O-])o4)c3)n2)c1 gave an IFI of 11.9%. COc1cc(Nc2ncc3c(C)nc(-c4cc5ccccc5[nH]4)n3n2)cc(OC)c1OC showed an IFI of 3.57%. Clc1ccc(-n2cnc3c(Nc4ccc(Oc5ccccc5)cc4)ncnc32)cc1Cl showed an IFI of 1.52%. In the case of CCCc1ccccc1Nc1nc(C)cc(N(CC)CCCN2CCCCC2)n1, the IFI is reported as 7.59%. In the case of CN(CC(=O)Nc1cc(C(F)(F)F)ccc1-n1cncn1)Cc1nc2ccccc2s1, the IFI is reported as -0%. O=C(Cc1c[nH]cn1)Nc1ccc(-c2cccc(-c3nc4cc(C(F)(F)F)ccc4[nH]3)c2)cc1 showed an IFI of 3.74%. NC1=NC2(CCCCC2)N(OCCCCCCc2ccccc2)C(N)=N1 showed an IFI of 23.9%. For O=C(Nc1cccc(-c2nc3ccccc3[nH]2)c1)c1cccc(NC(=O)c2ccco2)c1, the IFI was 4.29%. Work on O=C(O)c1ccc(-c2c[nH]c3ncc(-c4ccc(Cl)cc4)cc23)cc1 yielded an IFI of 5.52%. With COc1ccc(Oc2cnc(N)nc2N)c(C(C)C)c1 the IFI was 2.56%. CN1CCN(CC(=O)Nc2ccc(-c3ccc(-c4nc5ccccc5[nH]4)cc3)cc2)CC1 showed an IFI of 5.45%. Work on NOCCCOc1ccc(Cl)cc1 yielded an IFI of -0%. O=S(=O)(c1ccc(NC(S)=NN=Cc2ccccn2)cc1)N1CCCCC1 showed an IFI of 6.47%. O=C(Nc1ccc([N+](=O)[O-])cc1Cl)c1cc(Br)cc(Cc2ccccc2)c1O gave an IFI of 16.2%. In the case of O=c1cc(NCCC2CC=CCN2Cc2ccc(Cl)c(Cl)c2)[nH]c2ccccc12 (stereo not given), the IFI is reported as 3.91%. Cc1cc(CNCCCCCCCNCc2ccc(Cl)cc2)ccc1O showed an IFI of 3.7%. Compound FC(F)(F)c1cnc(Sc2nnc(-c3ccncc3)o2)c(Cl)c1 has an IFI of 3.5%. Work on COc1ccc2ccccc2c1CON1C(=N)N=C(N)NC1(C)C yielded an IFI of 1.42%. CC(=O)Nc1ccc(Cl)c(Cl)c1 gave an IFI of -0%. COc1cc(NC(=O)C(c2ccc(Cl)cc2)C(C)C)cc(OC)c1OC (stereo not given) showed an IFI of 6.06%. With O=c1cc(NCCCNC(CNCCc2ccccc2)c2cc(Br)cc(Br)c2)[nH]c2ccccc12 (stereo not given) the IFI was 5.84%. CC(C)[C@H](NC(=O)c1ccc(O)c(-c2cccc(C(F)(F)F)c2)c1)C(=O)NCCN1CCCCC1 gave an IFI of 0%. CON(C)C(=O)[C@@H](CCCCNC(=O)OCc1ccccc1)NC(=O)OC(C)(C)C showed an IFI of 1.5%. With COc1ccc(-c2ccc(NC(=O)c3ccc(F)cc3)cc2)cc1CNC(C)C the IFI was 2.97%. For CCCCCC(C)C(C)c1cc(O)c2c(c1)OC(C)(C)CC2=Cc1ccncc1 (stereo not given), the IFI was -0%. With CCOC(=O)C(NC(=O)c1ccc([N+](=O)[O-])o1)C(C)C (stereo not given) the IFI was 1.41%. Compound CCCCCCCCNCC(O)c1cc(-c2ccc(Cl)cc2)nc2cc(C)ccc12 (stereo not given) has an IFI of 4.41%.

From ChEMBL document CHEMBL1157539, “Thousands of chemical starting points for antimalarial lead identification” (Nature, 2010)
